Experimental data: PubChem BioAssay AID2006 (Sanford-Burnham Center for Chemical Genomics, 2009)
In all, about 290,000 compounds went through this assay and about 1,000 (0.34%) were called active. This list was built around the results that the source calls inconclusive (neither active nor inactive); the mix of calls is not that of the screen. Rule as the data show it: active = inhibition above about 50% (passing the limit was not always enough); inconclusive = no clear call, values can overlap the other calls.

These compounds were tested against SUMO-conjugating enzyme UBC9 (Homo sapiens) (UniProt P63279) (assay: blockers of SAE1/SAE2–UBC9 SUMO transfer – biochemical, HTRF, uHTS, primary screen (AID 2006)). Details: HTRF SUMOylation assay, SAE1/SAE2 + UBC9, in vitro; at 35 µM; stronger effect = higher value.
UniProt P63279, sequence (P63279 whole entry, looked up): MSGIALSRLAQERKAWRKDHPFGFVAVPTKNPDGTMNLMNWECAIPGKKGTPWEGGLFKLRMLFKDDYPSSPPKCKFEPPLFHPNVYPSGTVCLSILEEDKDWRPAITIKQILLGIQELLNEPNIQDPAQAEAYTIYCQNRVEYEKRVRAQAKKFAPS

inhibition, inconclusive:
O=C1/C(=C/c2ccc(Br)cc2)Oc2cc(O)ccc21 61.8%, CCn1c(/C=C/c2cc[n+](C)cc2)nc2ccccc21 66.8%, O=C(OCC1O[C@@H](OC(=O)c2cc(O)c(O)c(O)c2)[C@@H](OC(=O)c2cc(O)c(O)c(O)c2)[C@@H](OC(=O)c2cc(O)c(O)c(O)c2)[C@@H]1OC(=O)c1cc(O)c(O)c(O)c1)c1cc(O)c(O)c(O)c1 (some centres not stated) 94.1%, O=C(NC(Cc1ccccc1)C(=O)Oc1ccc2c(C(F)(F)F)cc(=O)oc2c1)OCc1ccccc1 (configuration not stated) 67.1%, CCc1ccc(-c2cc(C(=O)NN3CCOCC3)c3ccccc3n2)s1 54.4%, COCCNS(=O)(=O)c1ccc2c3c(cccc13)C(=O)N2C 60.6%, COc1ccc(-c2cc3ccc(O)cc3oc2=O)cc1 64%, O=C(NCCCO)c1ccc2nc(-c3ccco3)c(-c3ccco3)nc2c1 86.5%, Oc1ccc2ccccc2c1C1Nc2cccc3cccc(c23)N1 54.3%, c1coc(C2Nc3cccc4cccc(c34)N2)c1 95.8%, COCc1cc(=O)oc2cc(NS(=O)(=O)c3ccc(C)cc3)ccc12 57.8%, CC(=O)/C=C(\C)Nc1ccc(-c2cnc(-c3ccccc3)o2)cc1 78.2%, S=C(Nc1ccc(N2CCOCC2)cc1)Nc1ccc2nc(-c3ccco3)c(-c3ccco3)nc2c1 94.4%, C(=Nc1cccc2c(N=Cc3ccco3)cccc12)c1ccco1 94.8%, O=C(Nc1c(Cl)cc(Cl)cc1-c1nc2ccccc2s1)c1ccc(Br)o1 54.2%, CC(=O)Nc1ccc(NC(=O)CC2Nc3cccc4cccc(c34)NC2=O)cc1 (configuration not stated) 91.7%, CN(C)/C=N/c1nc2nccc(-c3ccccn3)n2n1 57.5%, O=C(NCCO)c1ccc2nc(-c3ccco3)c(-c3ccco3)nc2c1 79.5%, CC(=O)c1ccc(-c2nc3ccccc3n2C)o1 61.5%, O=C(Nc1ccc(N2CCOCC2)cc1)Nc1ccc2nc(-c3ccco3)c(-c3ccco3)nc2c1 79.1%, Nc1ccc2nc(-c3cccs3)[nH]c2c1 60%, Nc1ccc2oc(-c3ccc4nc[nH]c4c3)nc2c1 58.8%, O=c1oc2ccccc2cc1-c1nnc(NCc2ccco2)s1 53.3%, CN(C)c1ccc(-c2nc3cc(N)ccc3o2)cc1 64.3%, O=C(O)c1c2c(nc3ccccc13)/C(=C/c1ccc(O)cc1)CC2 77.6%, CCN1C(=O)/C(=C/C=C2/Sc3ccc4ccccc4c3N2CCO)SC1=S 74.9%, Cn1c(C(=O)N2CCOCC2)cc2c(=O)n3ccccc3nc21 54.8%, O=C(O)CSc1nnc(C2COc3ccccc3O2)n1-c1ccccc1 (configuration not stated) 58.1%, C/C(=C\C(=O)c1cccnc1)Nc1ccc(O)cc1 71.7%, Cc1cc(-c2ccc3ccccc3c2)n2ncnc2n1 50.2%, Cc1cc(=O)oc2cc3c(cc12)OCCN3 52.5%, COc1ccc(O)c(N)c1 93.4%, O=C(CSc1nc(-c2ccc(F)cc2)nc2c1Cc1ccccc1O2)Nc1cccc(C(=O)O)c1 83.4%, CC1=NN(c2cccc(C(=O)O)c2)C(=O)/C1=C\C=C\c1ccco1 51.9%, CC1CC(=O)C2=C(C1)Nc1nc3ccccc3n1C2c1cccnc1 (configuration not stated) 64.6%, O=C(Nc1ccc(-c2nc3ccccc3s2)c(OC(=O)c2ccccc2)c1)c1ccccc1 50.6%, CC(=O)c1cc2c(s1)-c1cc(F)ccc1OC2 73.8%, C/C(=N/N=C(\C)c1ccccc1O)c1ccccc1O 61.5%, Nc1ccc(-c2nc3cc(N)ccc3o2)cc1 63.5%, Cc1ccsc1C(=O)Nc1ccc(O)c(-c2nc3ccccc3s2)c1 64.9%, Nc1ccc2c(c1)C(=O)C(=O)c1ccccc1-2 84.6%, Nc1c(C(=O)NCC2CCCO2)sc2nc3c(c(-c4ccco4)c12)CC/C3=C\c1ccco1 (configuration not stated) 96.9%, CCN1CCN(C(=O)c2cc3c(s2)-c2c(C)cccc2OC3)CC1 56.4%

inhibition, inactive:
CCN(CC)C(=O)c1sc2nc(N3CCOCC3)c3c(c2c1N)CCCC3 5.1%, CSc1nccc(Nc2ccccc2)c1C#N 6.8%, Cc1cc(-c2ccccc2)nc2cc(C(=O)NCCCn3ccnc3)nn12 27.7%, O=[N+]([O-])c1cccc(S(=O)(=O)[N-]c2nc3ccccc3nc2-n2cc[n+](Cc3ccccc3)c2)c1 19.2%, CCC(=O)N(Cc1ccc(C)cc1)Cc1cc2cc3c(cc2[nH]c1=O)OCO3 2.2%, CCN(CC)S(=O)(=O)c1ccc(C(=O)OCC(=O)NCc2ccco2)cc1 3%, O=C(NCCCn1ccnc1)c1cc2cc([N+](=O)[O-])ccc2oc1=O -4%, O=C(NCc1ccccn1)C(=O)NCC1OCCN1S(=O)(=O)c1ccc([N+](=O)[O-])cc1 (configuration not stated) 17.1%, CC(NC(=O)c1ccc(F)cc1)C(c1cccs1)N1CCN(C)CC1 (configuration not stated) 3.7%, COc1cc(OC)nc(NC(=O)CN2CCN(c3ccc(F)cc3)CC2)n1 12.2%, CCOC(=O)C(=O)Nc1ccccc1C(N)=O 15.4%, O=C(c1ccco1)N1CCCN(Cc2nc(-c3cccs3)no2)CC1 6.5%, O=C(COC(=O)c1cn(-c2ccccc2)nc1-c1cccnc1)NC1CC1 -5.1%, COc1cc(/C=N/NS(=O)(=O)c2ccccc2)c(OC)c(OC)c1 -16.6%, C/C(=N/Nc1nc(-c2ccc(Cl)cc2)cs1)c1cccs1 9.2%, CCCC(=O)Nc1cc(-c2nc3ncccc3o2)ccc1C 2.1%, O=C(Nc1ccncc1)c1ccccc1-c1ccccc1 26.3%, CCOCCCNC(=S)Nc1ccc2nc(N3CCOCC3)cc(C)c2c1 -1.1%, Cc1cc(C(=O)N/N=C/c2cc(N=Nc3ccccc3)ccc2O)n[nH]1 -51.7%, O=C1NC(c2ccco2)Nc2sc3c(c21)CCN(Cc1ccccc1)C3 (configuration not stated) -9.4%, CCN(C(=O)c1cc2c(=O)n3ccccc3nc2s1)C1CCCCC1 30.6%, COC(CN(C(=O)CCl)C(C(=O)NC1CCCCC1)c1ccc(C)cc1)OC (configuration not stated) 0.4%, Cc1c(C(=O)O)cccc1-c1ccc(/C=C2\SC(=O)NC2=O)o1 52.3%, CCOC(=O)C1(Cc2cccc(OC)c2)CCCN(Cc2cnn(C)c2)C1 (configuration not stated) 1.5%, O=C(C1=C(c2ccccc2)C(=O)c2ccccc2C1=O)c1ccccc1 8.9%, Clc1ccc2oc(-c3ccccn3)nc2c1 6.3%, O=S(=O)(/N=C(/NC(=S)Nc1ccccc1)c1ccccc1)c1ccc(Cl)cc1 -9%, CN(CCOc1ccc(Cl)cc1)C(=O)C1CCN(C(=O)c2ccc(F)cc2)CC1 -3.2%

inhibition, active:
Cc1ccc(-c2nc(SCC(=O)Nc3ccccc3OC(F)F)c3c(C)c(C(=O)O)sc3n2)cc1 77.1%, S=C(Nc1ccc2cn[nH]c2c1)Nc1ccccc1Cl 87.9%, Cc1c(N=Nc2c(-c3ccc([N+](=O)[O-])cc3)[nH]n(C(N)=S)c2=O)cccc1[N+](=O)[O-] 69.4%, O=C(Nc1ccccc1-c1nc2ccccc2s1)c1cccnc1Cl 58.2%, Cn1cccc1CC(=O)N/N=C/C=C/c1ccco1 80%, O=[N+]([O-])c1c(Nc2ccccn2)cc(Cl)c2nonc12 93.4%, CCc1nnc(NC(=O)c2cc(-c3ccco3)nc3ccccc23)s1 67%, CN(C)C=Nc1ccc2nc3c(cc2c1)[nH]c1ccccc13 50.1%, COc1ccc(-c2nc3ccc([N+](=O)[O-])cc3[nH]2)cc1 54.8%, Cc1[nH][nH]c(=O)c1C(c1ccc(-c2ccc(Cl)cc2Cl)o1)c1c(C)[nH][nH]c1=O 90.8%, N#Cc1c(N)n(-c2cccc(C(=O)O)c2)c2nc3ccccc3nc12 59.8%, O=C1C=C(NCCN2CCOCC2)C(=O)c2cnccc21 84.2%, O=C1/C(=C\c2cc(Br)cc(Br)c2O)SC(=S)N1Cc1ccccc1 58.6%, CSc1ccc(-c2cc(=O)c3ccccc3o2)cc1 54.3%, CCOC(=O)c1sc2nc3c(SCCC(=O)O)cc(C(=O)c4cc(OC)ccc4O)cn3c(=O)c2c1C 73.6%, CCOC(=O)/C=C(\C)Sc1cc(O)c2ccccc2c1O 74%, O=C(Cc1csc(N2CCOCC2)n1)N/N=C/c1ccc(O)c(O)c1O 93.4%, O=[N+]([O-])c1cc(CN2CCOCC2)c2cccnc2c1O 89%, O=C(O)c1ccc2c(c1)C(=O)N(c1cccc(-c3nc4ccccc4s3)c1)C2=O 70.3%, CN1C(=O)c2cccc3c(S(=O)(=O)NCCc4ccccc4)ccc1c23 55.5%, Cc1nn(-c2ccccc2)c(Cl)c1/C=N/Nc1ccc(S(=O)(=O)Nc2ccccc2C(=O)O)cc1[N+](=O)[O-] 62.3%
